Results published in the antibiotic and cytotoxicity screens of Wong et al. (2023).
Some of the results follow.

Each molecule was assayed on HepG2 (assay: cytotoxicity call (relative viability < 0.9)). Conditions: 10 µM.
In the case of `COc1ccc(CNC(=O)C[C@@H]2CC[C@H]3[C@@H](COC[C@H](O)CN3S(=O)(=O)c3ccc(C)cc3)O2)cc1OC`, the cytotoxicity call is reported as “inactive”. `C[C@@H]1CCCCO[C@@H](CN(C)C(=O)Nc2ccc(F)cc2)[C@H](C)CN([C@@H](C)CO)C(=O)c2cc(NC(=O)Nc3ccccc3)ccc2O1` was tested, and the cytotoxicity call was “inactive”. `COc1ccc(S(=O)(=O)N(C)C[C@H]2Oc3ccc(NS(=O)(=O)c4cn(C)cn4)cc3C(=O)N([C@@H](C)CO)C[C@@H]2C)cc1` was tested, and the cytotoxicity call was “inactive”. In the case of `C[C@@H]1CCCCO[C@@H](CN(C)C(=O)C2CCCCC2)[C@@H](C)CN([C@H](C)CO)C(=O)c2cc(NC(=O)Nc3ccc(F)cc3)ccc2O1`, the cytotoxicity call is reported as “inactive”. In the case of `C[C@@H]1CN([C@H](C)CO)C(=O)Cc2cc(NC(=O)c3ccncc3)ccc2O[C@@H]1CN(C)C(=O)NC1CCCCC1`, the cytotoxicity call is reported as “inactive”. `CCCN1C[C@H](C)[C@H](OC)CN(C)C(=O)c2cc(NS(=O)(=O)c3cn(C)cn3)ccc2OC[C@@H]1C` was tested, and the cytotoxicity call was “inactive”. With `COc1ccc(C#Cc2cnc3c(c2)C(=O)N([C@H](C)CO)C[C@H](C)[C@H](CN(C)C(=O)CC2CC2)O3)cc1` the cytotoxicity call was “inactive”. In the case of `C[C@@H](NC(=O)C[C@H]1CC[C@H](NC(=O)CN2CCOCC2)[C@H](CO)O1)c1ccccc1`, the cytotoxicity call is reported as “inactive”. With `C[C@@H]1CN([C@@H](C)CO)C(=O)CCCn2cc(nn2)CO[C@H]1CN(C)S(=O)(=O)c1ccc(Oc2ccccc2)nc1` the cytotoxicity call was “inactive”. For `COc1ccc(NC(=O)Nc2ccc3c(c2)CC(=O)N([C@H](C)CO)C[C@@H](C)[C@H](CN(C)S(=O)(=O)c2c(C)noc2C)O3)cc1`, the cytotoxicity call was “inactive”.
